Reference: PubChem BioAssay AID248 (DTP/NCI, 2004)
Toxic doses and inconclusive results are not listed. For part of its entries the source gives two or more results. They are shown here; other results are not. An entry can have further records. The records of an entry are repeated measurements (runs, samples, wells, individuals or studies).

Tested on: L1210 leukemia ip in BDF1 mice, survival T/C
Test: NCI In Vivo Anticancer Drug Screen. Data for tumor model L1210 Leukemia (intraperitoneal) in B6D2F1 (BDF1) mice
Settings: endpoint: mean survival time, higher = longer survival

With COc1cc2c[n+](C)c3c4cc(OC)c(OC)cc4ccc3c2cc1OC as the compound, how does the T/C (dose: 100.0 mg/kg/injection, schedule: Q01DX009 (ip), vehicle: water) read?
The T/C was 88 % of control and 164 % of control.

And the T/C (dose: 200.0 mg/kg/injection, schedule: Q01DX009 (ip), vehicle: saline)?
The T/C was 121 % of control and 151 % of control.

Which results are given for O=C(NP(=O)(N1CC1)N1CC1)c1cc(I)ccc1I?
T/C (dose: 2.0 mg/kg/injection, schedule: Q01DX009 (ip), vehicle: saline): 94 % of control and 151 % of control; T/C (dose: 4.0 mg/kg/injection, schedule: Q01DX009 (ip), vehicle: saline): 104 % of control and 165 % of control; T/C (dose: 8.0 mg/kg/injection, schedule: Q01DX009 (ip), vehicle: saline): 118 % of control and 162 % of control; T/C (dose: 16.0 mg/kg/injection, schedule: Q01DX009 (ip), vehicle: saline): 107 % of control and 176 % of control

For CC1c2ccccc2OC(=O)C1C(=O)O (centres undefined), which T/C (dose: 200.0 mg/kg/injection, schedule: Q01DX001 (ip), vehicle: carboxymethylcellulose (CMC)) is on record?
The T/C was 95 % of control and 152 % of control.

With COc1cc([N+](=O)[O-])c(Cl)cc1NS(=O)(=O)c1ccccc1 as the compound, how does the T/C (dose: 200.0 mg/kg/injection, schedule: Q04DX003 (ip), vehicle: saline with Tween-80) read?
The T/C was 100 % of control, 101 % of control, 171 % of control.

Which T/C (dose: 12.5 mg/kg/injection, schedule: Q04DX002 (ip), vehicle: saline with Tween-80) does the source give for O=C(O)c1cc([N+](=O)[O-])cc([N+](=O)[O-])c1 (tested in a mixture with another compound) here?
Its T/C is 97 % of control and 169 % of control.
